# According to the BET-seq Pho4 binding data (Le et al. 2018):
# The list shows a part of the results. The energies were worked out here from pooled read counts, against the library average; single values are noisy.
# Biological target: T1, Pho4 (S. cerevisiae) (UniProt P07270)
# T1 sequence: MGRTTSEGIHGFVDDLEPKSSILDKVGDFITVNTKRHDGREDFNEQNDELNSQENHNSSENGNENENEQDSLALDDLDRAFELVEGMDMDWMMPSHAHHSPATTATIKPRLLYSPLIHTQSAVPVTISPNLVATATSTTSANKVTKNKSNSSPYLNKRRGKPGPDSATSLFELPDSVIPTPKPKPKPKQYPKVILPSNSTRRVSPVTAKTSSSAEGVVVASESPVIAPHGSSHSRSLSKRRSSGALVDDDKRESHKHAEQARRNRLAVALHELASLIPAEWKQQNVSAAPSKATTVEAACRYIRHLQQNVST
# Experiment: relative binding free energy (BET-seq); higher = weaker binding
# Details: reference: library average
row,Sequence,relative binding free energy
1,GGCTTCACGTGTTGAG,0.27 kcal/mol
2,TTTTTCACGTGAAAGA,0.53 kcal/mol
3,TGTAACACGTGAGTGG,0.25 kcal/mol
4,TTGACCACGTGGTTTT,-0.12 kcal/mol
5,TTGGACACGTGAAGGG,0.27 kcal/mol
6,ATATGCACGTGATTAG,0.02 kcal/mol
7,GGTCTCACGTGTTTGG,0.33 kcal/mol
8,GACGTCACGTGTTATG,0.23 kcal/mol
9,TGATGCACGTGCAGTG,-0.16 kcal/mol
10,AGCCGCACGTGGGGTG,-0.43 kcal/mol
11,TTTTACACGTGGGTTA,-0.02 kcal/mol
12,AGGATCACGTGGTACT,0.15 kcal/mol
13,TAAAGCACGTGTTATT,-0.01 kcal/mol
14,TCGGGCACGTGGGGGA,-0.24 kcal/mol
15,AATCTCACGTGTAGGT,0.16 kcal/mol
16,GGTATCACGTGTACGG,0.14 kcal/mol
17,TTGATCACGTGGTGAC,0.15 kcal/mol
18,CTGTCCACGTGTGGGA,-0.05 kcal/mol
19,GTAGGCACGTGGAATT,0.09 kcal/mol
20,TCTATCACGTGTTAGT,0.07 kcal/mol
21,TCGTGCACGTGTTTGG,-0.12 kcal/mol
22,GAAGTCACGTGTCTGT,0.19 kcal/mol
23,ATTAGCACGTGTATGA,-0.06 kcal/mol
24,TGTGGCACGTGTGGTG,-0.02 kcal/mol
25,ATTTACACGTGTATAG,-0.01 kcal/mol
26,ACTGTCACGTGCGTTT,0.14 kcal/mol

row,Sequence,relative binding free energy
1,TTGTTCACGTGCCGAT,0.22 kcal/mol
2,AGCGGCACGTGGAATG,-0.09 kcal/mol
3,AAATGCACGTGTGTTT,0.09 kcal/mol
4,TGAGGCACGTGGTGGT,-0.06 kcal/mol
5,GTTTTCACGTGTTCTA,0.23 kcal/mol
6,CTGAACACGTGGGTTA,0 kcal/mol
7,GTGGTCACGTGGGAAG,0.03 kcal/mol
8,TTTGTCACGTGAGCAA,0.27 kcal/mol
9,GTTGTCACGTGCGATA,0.11 kcal/mol
10,AGGGACACGTGATGAG,0.03 kcal/mol
11,GATTTCACGTGGGTGA,0.25 kcal/mol
12,GTGATCACGTGTAGGT,0.08 kcal/mol
13,TCTTTCACGTGGCGGT,0.25 kcal/mol
14,TTTATCACGTGATACG,0.13 kcal/mol
15,CGTGACACGTGTTGTG,-0.12 kcal/mol
16,TTTGGCACGTGACTAA,0.12 kcal/mol
17,TTGGTCACGTGGTTTC,0.27 kcal/mol
18,TAAGTCACGTGTTCTT,0.07 kcal/mol
19,GTTCTCACGTGTTTGT,0.19 kcal/mol
20,CAAGGCACGTGGAGGT,-0.19 kcal/mol
21,AATGCCACGTGGGGAG,-0.08 kcal/mol
22,GTGGACACGTGGAAGG,0.02 kcal/mol
23,GGCGGCACGTGAGCGA,0.11 kcal/mol
24,ATCTACACGTGGTGTT,0.11 kcal/mol
25,GATCGCACGTGATGGT,0.31 kcal/mol
26,TAAATCACGTGGGGAA,0.09 kcal/mol

row,Sequence,relative binding free energy
1,GTTGACACGTGTTGTG,0.05 kcal/mol
2,GAGGTCACGTGTTAGC,0.22 kcal/mol
3,CTTGTCACGTGCGGGG,-0.07 kcal/mol
4,GGTGGCACGTGTCGCA,0 kcal/mol
5,TCGGCCACGTGTGGTG,0.02 kcal/mol
6,TGGTGCACGTGGAGGG,0.01 kcal/mol
7,GGGGGCACGTGTGGTA,0 kcal/mol
8,CGGGACACGTGGCATG,-0.02 kcal/mol
9,TGGCACACGTGGAGTG,-0.06 kcal/mol
10,ATCTTCACGTGGGTGT,0.2 kcal/mol
11,GGAAACACGTGGGTTT,0.04 kcal/mol
12,TAGTGCACGTGAGGCG,0.17 kcal/mol
13,TATTTCACGTGTGCTT,0.32 kcal/mol
14,CGAGTCACGTGCGGTG,0.03 kcal/mol
15,GTTCGCACGTGTCGGG,0.03 kcal/mol
16,ACGGGCACGTGGTATG,-0.34 kcal/mol
17,CGTATCACGTGTGCGG,0.1 kcal/mol
18,AGCTACACGTGTTGGG,0.12 kcal/mol
19,ACGTGCACGTGGAGTG,-0.09 kcal/mol
20,TATATCACGTGTCGAT,0.18 kcal/mol
21,CTGATCACGTGGGGCG,0.02 kcal/mol
22,GTTTACACGTGCCTGT,0.07 kcal/mol
23,GGGGACACGTGTCGTA,0.14 kcal/mol
24,AATATCACGTGTAAGG,0.12 kcal/mol
25,TCATTCACGTGAGGTA,0.53 kcal/mol
26,TGTTACACGTGGAGTC,0.08 kcal/mol

row,Sequence,relative binding free energy
1,ATGGCCACGTGGTATG,-0.14 kcal/mol
2,TGTGTCACGTGATAAG,0.07 kcal/mol
3,CTGTTCACGTGGGAAA,0.33 kcal/mol
4,GGGAGCACGTGGGAGT,-0.17 kcal/mol
5,GGCCTCACGTGTGTTG,0.19 kcal/mol
6,CGAGGCACGTGGAGTT,-0.18 kcal/mol
7,GTCGTCACGTGGTGTG,0.06 kcal/mol
8,GACAGCACGTGATGGG,0.24 kcal/mol
9,CAGGGCACGTGCGTGG,-0.13 kcal/mol
10,TATTACACGTGGGGAA,0.02 kcal/mol
11,GAGTGCACGTGGCGGA,0.01 kcal/mol
12,GTGGCCACGTGATTGT,0.03 kcal/mol
13,AAGGGCACGTGAGGGA,0.14 kcal/mol
14,TTATGCACGTGTATCG,-0.04 kcal/mol
15,TGCTTCACGTGCGGTT,0.15 kcal/mol
16,TGTTGCACGTGTTCAT,0.04 kcal/mol
17,AAAAACACGTGAGGTG,0.25 kcal/mol
18,GTGCTCACGTGTTCGG,0.26 kcal/mol
19,AAGTTCACGTGGGGAG,0.14 kcal/mol
20,TATGGCACGTGCAAGG,-0.05 kcal/mol
21,TTCAGCACGTGTGGAG,-0.07 kcal/mol
22,TGCAGCACGTGGTTAA,-0.08 kcal/mol
23,AAAATCACGTGGTTTG,0.1 kcal/mol
24,TCCGGCACGTGCGTGG,-0.16 kcal/mol
25,ATGAGCACGTGTTGTA,-0.21 kcal/mol
26,AGAAGCACGTGAGGGA,0.15 kcal/mol

row,Sequence,relative binding free energy
1,ATTATCACGTGTCATT,0.17 kcal/mol
2,AATGTCACGTGGCTGG,0.06 kcal/mol
3,TGGGACACGTGAGAGG,0.35 kcal/mol
4,TTAGTCACGTGAACTG,0.25 kcal/mol
5,ATGCGCACGTGAGATT,0.21 kcal/mol
6,AGAAACACGTGGGGAA,-0.01 kcal/mol
7,GGTGACACGTGTTATT,-0.13 kcal/mol
8,CAGTTCACGTGGGGCT,0.13 kcal/mol
9,GTGATCACGTGTGAGC,0.34 kcal/mol
10,GGGTCCACGTGGTGGC,0.13 kcal/mol
11,TGGGTCACGTGATGCT,0.27 kcal/mol
12,ATATTCACGTGGGGTT,0.09 kcal/mol
13,ATGGTCACGTGGTGTC,0.04 kcal/mol
14,TGTATCACGTGGCTGT,-0.01 kcal/mol
15,CGAGTCACGTGGGGGA,-0.16 kcal/mol
16,CGGGGCACGTGGCGTA,-0.27 kcal/mol
17,TGTTCCACGTGGGGGA,-0.09 kcal/mol
18,TTTCGCACGTGTTAGG,0.01 kcal/mol
19,TGTTTCACGTGCAAAT,0.35 kcal/mol
20,GTTGTCACGTGCAAAT,0.26 kcal/mol
21,TCTGTCACGTGAGGGT,0.27 kcal/mol
22,GGGGGCACGTGATAGT,0.16 kcal/mol
23,TGAATCACGTGTATGA,0.24 kcal/mol
24,GCTAGCACGTGGGGCG,-0.1 kcal/mol
25,CTTGACACGTGGAAGG,0.1 kcal/mol
26,GTTAGCACGTGGTTTG,-0.12 kcal/mol

row,Sequence,relative binding free energy
1,GAGGGCACGTGAGATT,0.16 kcal/mol
2,GTTAACACGTGTGTCG,0.12 kcal/mol
3,ATATGCACGTGTGTTC,-0.04 kcal/mol
4,GGGTACACGTGGTCAT,0.04 kcal/mol
5,TTAGGCACGTGGGCGC,-0.3 kcal/mol
6,AGTGGCACGTGGTGAG,-0.14 kcal/mol
7,TATTTCACGTGTCGTT,0.19 kcal/mol
8,ATTTTCACGTGGCGGG,0.24 kcal/mol
9,TTCTACACGTGTATTT,0.07 kcal/mol
10,TGGATCACGTGGCTAT,0.02 kcal/mol
11,TGGGGCACGTGACTGG,-0.04 kcal/mol
12,TCGTTCACGTGATAGG,0.34 kcal/mol
13,GGGGTCACGTGGTGAA,0.1 kcal/mol
14,TTCGGCACGTGTTACT,0.02 kcal/mol
15,ACTTGCACGTGGTTAG,0.06 kcal/mol
16,TATGACACGTGTTGGC,0.09 kcal/mol
17,ATTTTCACGTGTCGGG,0.22 kcal/mol
18,GGCCGCACGTGGGATG,-0.19 kcal/mol
19,ATTAGCACGTGCTTGG,-0.06 kcal/mol
20,GCTTACACGTGCGGTG,0.16 kcal/mol
21,TTAGGCACGTGATGTC,-0.02 kcal/mol
22,AGGATCACGTGTTTGC,0.08 kcal/mol
23,CTGTGCACGTGGATGG,-0.07 kcal/mol
24,GGTAGCACGTGCTGGG,-0.07 kcal/mol
25,GGAGTCACGTGATGGC,0.37 kcal/mol
26,GATGGCACGTGGATAG,-0.04 kcal/mol

row,Sequence,relative binding free energy
1,GGGGACACGTGTTCGT,0.12 kcal/mol
2,AGGTGCACGTGCGTCG,-0.09 kcal/mol
3,AGTATCACGTGTAGTG,0.17 kcal/mol
4,GTAAACACGTGGATGG,0.11 kcal/mol
5,TGCAGCACGTGTATTT,0.04 kcal/mol
6,CGTGTCACGTGTTTCG,0.04 kcal/mol
7,GTGGGCACGTGATGTG,0.05 kcal/mol
8,GGATTCACGTGAGTTC,0.47 kcal/mol
9,CGGAGCACGTGAGGTT,0.13 kcal/mol
10,TAATACACGTGGATAT,-0.02 kcal/mol
11,GGGGTCACGTGCTGTC,0.1 kcal/mol
12,TTGGTCACGTGGACTT,0.01 kcal/mol
13,TCTAGCACGTGGTATA,-0.07 kcal/mol
14,AGGGCCACGTGCAGGT,-0.19 kcal/mol
15,AGTTTCACGTGTCTGG,0.36 kcal/mol
16,GGGCTCACGTGCAGGG,0.16 kcal/mol
17,GGTCACACGTGGTGGT,-0.11 kcal/mol
18,AAAGGCACGTGGATGT,-0.06 kcal/mol
19,TTTTGCACGTGAGTTA,0.24 kcal/mol
20,TGCTGCACGTGCTGGG,0.02 kcal/mol
21,GTGGCCACGTGTTTTG,0.1 kcal/mol
22,TGGTACACGTGGGGAC,0 kcal/mol
23,CGCGACACGTGGTGGT,-0.1 kcal/mol
24,TTGCGCACGTGAGTAT,0.19 kcal/mol
25,GAAGTCACGTGGAATG,0.18 kcal/mol
26,AGTAGCACGTGTGGTG,-0.1 kcal/mol

row,Sequence,relative binding free energy
1,TTTGCCACGTGGGTGT,-0.15 kcal/mol
2,TTACGCACGTGAGGGT,0 kcal/mol
3,GGTGTCACGTGCTGCG,-0.11 kcal/mol
4,CGTTGCACGTGTGCGG,0.01 kcal/mol
5,TGAAACACGTGTCGGA,0.19 kcal/mol
6,AGTATCACGTGTGCGG,0.2 kcal/mol
7,CTTTACACGTGGCCGT,0.24 kcal/mol
8,CCGGGCACGTGTGTTG,-0.01 kcal/mol
9,GCGATCACGTGGTAGG,0.11 kcal/mol
10,GGTAACACGTGAGTAG,0.15 kcal/mol
11,GAATTCACGTGTGGGA,0.36 kcal/mol
12,CAGAGCACGTGGGTAG,-0.2 kcal/mol
13,ATAGACACGTGGAGGT,-0.12 kcal/mol
14,TTGAACACGTGTGCAG,0.02 kcal/mol
15,GGAGCCACGTGTTTTG,0 kcal/mol
16,TGTGACACGTGGATAG,-0.05 kcal/mol
17,GGCTTCACGTGAGCGG,0.22 kcal/mol
18,TTCCTCACGTGGGAGG,0.23 kcal/mol
19,GGTGACACGTGACTTT,0.2 kcal/mol
20,TGGGTCACGTGACGTT,0.25 kcal/mol
21,GGGACCACGTGTTAGG,0 kcal/mol
22,CGGCTCACGTGTGGGG,0.23 kcal/mol
23,TGGGACACGTGGCGGT,-0.08 kcal/mol
24,GGGTGCACGTGTCCGG,-0.16 kcal/mol
25,CTTGTCACGTGTCAGG,0.17 kcal/mol
26,CTGTTCACGTGATCGT,0.33 kcal/mol

row,Sequence,relative binding free energy
1,GACGGCACGTGGGTGT,-0.2 kcal/mol
2,GTTTACACGTGGGATT,0.13 kcal/mol
3,TATGGCACGTGGGTGT,-0.28 kcal/mol
4,ATTCTCACGTGATTTT,0.33 kcal/mol
5,ATAGTCACGTGAGAAT,0.29 kcal/mol
6,AGGGTCACGTGCATAG,0.07 kcal/mol
7,TGAATCACGTGGGCAG,0 kcal/mol
8,ATGAACACGTGGAGGA,0.12 kcal/mol
9,CGTTTCACGTGTCGGG,0.3 kcal/mol
10,AGCTTCACGTGTTTGT,0.34 kcal/mol
11,TGAGGCACGTGTTGTA,-0.15 kcal/mol
12,AAGTACACGTGTGGGT,0.18 kcal/mol
13,AGAAGCACGTGGTGAA,0.01 kcal/mol
14,GCTGGCACGTGGTCGT,-0.18 kcal/mol
15,GGCGGCACGTGATTAG,0.08 kcal/mol
16,TGTTACACGTGGGCAG,0.03 kcal/mol
17,CTACTCACGTGTTGTG,0.17 kcal/mol
18,TAATTCACGTGGGTTC,0.25 kcal/mol
19,ATTGGCACGTGTGTGA,-0.07 kcal/mol
20,CTGTTCACGTGAGTGG,0.36 kcal/mol
21,AGATTCACGTGACTTG,0.46 kcal/mol
22,GTAGGCACGTGAGGCA,0.14 kcal/mol
